# Data from the supplement of paper PMC3334620.
# Whole data set: some 33,000 sequences, median “E-score (-0.5 to 0.5)” near -0.012, cut for the highest 2% near 0.29. The list shows a part of the results.
# Biological target: T1, Ybr033w (UniProt P38073)
# T1 sequence: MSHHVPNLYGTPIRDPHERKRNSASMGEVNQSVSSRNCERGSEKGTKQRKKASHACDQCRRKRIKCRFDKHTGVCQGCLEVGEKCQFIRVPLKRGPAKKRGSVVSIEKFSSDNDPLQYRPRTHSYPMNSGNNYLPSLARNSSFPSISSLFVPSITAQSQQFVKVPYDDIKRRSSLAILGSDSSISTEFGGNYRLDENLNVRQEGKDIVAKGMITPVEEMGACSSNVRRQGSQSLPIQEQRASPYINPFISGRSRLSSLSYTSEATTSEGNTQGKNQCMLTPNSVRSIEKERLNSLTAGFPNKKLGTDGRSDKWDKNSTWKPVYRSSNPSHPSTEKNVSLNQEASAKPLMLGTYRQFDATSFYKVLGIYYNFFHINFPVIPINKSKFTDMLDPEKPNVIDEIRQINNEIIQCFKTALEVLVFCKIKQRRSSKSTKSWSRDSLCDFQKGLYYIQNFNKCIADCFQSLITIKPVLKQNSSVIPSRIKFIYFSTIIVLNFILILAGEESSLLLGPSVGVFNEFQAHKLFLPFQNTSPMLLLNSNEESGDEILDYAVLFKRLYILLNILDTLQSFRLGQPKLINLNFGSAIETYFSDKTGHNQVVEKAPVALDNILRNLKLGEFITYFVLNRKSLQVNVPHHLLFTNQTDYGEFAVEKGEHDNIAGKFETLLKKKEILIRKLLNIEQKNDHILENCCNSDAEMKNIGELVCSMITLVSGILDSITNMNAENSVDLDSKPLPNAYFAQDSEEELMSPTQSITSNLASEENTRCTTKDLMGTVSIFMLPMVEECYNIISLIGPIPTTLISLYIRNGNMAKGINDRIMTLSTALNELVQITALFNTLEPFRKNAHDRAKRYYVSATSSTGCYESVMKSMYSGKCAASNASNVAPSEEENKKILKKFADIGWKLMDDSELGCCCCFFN
# Test: PBM E-score (8-mer binding enrichment) (E-score (-0.5 to 0.5)); higher = stronger / more preferred TF binding; most listed sequences are background and not binding sites
# Conditions: protein concentration: 200 nM; construct: GST-full length
# Summary of the method: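 Universal all-10-mer Agilent arrays, double-stranded by primer extension on fresh or once-stripped slides, were probed with about 100-200 nM GST-tagged yeast transcription factors made by PURExpress. Fluorescent anti-GST detected bound protein, and masliner normalised the scans. E-scores from the Universal PBM Analysis Suite were given to each ungapped eight-base word pooled with its reverse complement.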
row,Sequence,PBM E-score
1,CGCGTCCG,-0.114
2,ACGATGAC,-0.106
3,GCCCGACA,0.0799
4,AACGGTGG,-0.0934
5,CATAAGAG,0.102
6,AGAAGCTC,-0.0933
7,GGAGTGCC,-0.165
8,CATGCAGC,-0.173
9,AGAGAGGG,-0.233
10,AAAGCTGC,-0.0518
11,ATGCCTCG,-0.0626
12,ACCGGGCA,-0.21
13,CCATATAG,0.0422
14,TAGGTGGA,0.103
15,GGATCATA,0.123
16,AAATATAC,0.312
17,GTTCTCCA,0.0715
18,AACTAGTT,-0.0643
19,CGTATGGA,0.204
20,CGACCAAA,0.0922
21,GGCTAACA,0.0488
22,ACTCGTAC,0.0956

row,Sequence,PBM E-score
1,ATTAACTA,0.181
2,CCAACTGG,-0.0443
3,ATACCGAC,-0.155
4,ATTAATGG,0.289
5,ATATACCA,0.0894
6,GCTGAGTA,-0.0944
7,CTAAAAGA,0.0548
8,GCTTATCA,-0.0763
9,ATCCGATC,0.159
10,TATATTGA,0.275
11,ACAACATC,0.117
12,AATAACGC,0.0422
13,CCCCGATA,-0.105
14,CTCGTGGC,-0.173
15,GGTGAACC,0.0582
16,CCCTTAAG,0.149
17,AGTCTATC,-0.0692
18,AGTTAGAA,0.0705
19,CCGGTGTA,-0.148
20,AACGGCCT,-0.213
21,CCTAAGTA,0.197
22,GAGGAGTA,-0.0624

row,Sequence,PBM E-score
1,GCAACGTA,-0.0309
2,CACACTTA,0.143
3,AGGCCTGA,-0.238
4,AGTGGCTG,-0.145
5,CGATCCAA,0.0578
6,CTATGTAA,0.125
7,ATCGAATG,0.0968
8,AGCACTAT,0.0398
9,AGCTGCTG,-0.0869
10,ATGTTGTA,0.164
11,CCGCCGGC,-0.123
12,CCGTCAGA,-0.207
13,ACACAAAA,0.266
14,ACTGAAAC,0.208
15,CTTTCCCC,0.0309
16,ACAGTAGT,0.0255
17,CGTCTATA,0.0435
18,CACGACCC,-0.135
19,GCGTAGAA,-0.0322
20,ACTGTGTG,0.073
21,ATTTTTAC,0.213
22,AACCTAGT,0.0151

row,Sequence,PBM E-score
1,CTAAACGA,0.0611
2,CTTCTCGA,0.0158
3,GACCTAAC,0.0362
4,AAGTGTGT,0.0227
5,GGAAAGGA,-0.0611
6,AACGCCGG,-0.132
7,ACGCGATC,-0.0515
8,ATGCCCAA,-0.111
9,GGCTTCAC,-0.279
10,GCCGATGA,-0.225
11,GAGACACC,-0.216
12,CGAGGACA,-0.143
13,AGTCTGAT,0.0945
14,ATCTGGTG,-0.0329
15,CATATAGA,0.162
16,ATGAACCG,-0.0614
17,ACGAAAGC,-0.05
18,AATCGTCG,0.111
19,ACCTTAAG,-0.033
20,CCCCGAAA,0.141
